# Among all 310,000 compounds or so, about 14,000 (4.5%) showed an effect of 50% or more. Effects have a minus sign here. The list shows a part of the results.
# Biological target: human ether-à-go-go-related gene (hERG) potassium channel (human, UniProt Q12809)
# Experiment: primary screen, population patch clamp on CHO cells stably expressing hERG
# 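Note: peak tail current of the secondary pulse compared with the same well before compound.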
# Sequence of human ether-à-go-go-related gene (hERG) potassium channel (Q12809 whole entry, looked up): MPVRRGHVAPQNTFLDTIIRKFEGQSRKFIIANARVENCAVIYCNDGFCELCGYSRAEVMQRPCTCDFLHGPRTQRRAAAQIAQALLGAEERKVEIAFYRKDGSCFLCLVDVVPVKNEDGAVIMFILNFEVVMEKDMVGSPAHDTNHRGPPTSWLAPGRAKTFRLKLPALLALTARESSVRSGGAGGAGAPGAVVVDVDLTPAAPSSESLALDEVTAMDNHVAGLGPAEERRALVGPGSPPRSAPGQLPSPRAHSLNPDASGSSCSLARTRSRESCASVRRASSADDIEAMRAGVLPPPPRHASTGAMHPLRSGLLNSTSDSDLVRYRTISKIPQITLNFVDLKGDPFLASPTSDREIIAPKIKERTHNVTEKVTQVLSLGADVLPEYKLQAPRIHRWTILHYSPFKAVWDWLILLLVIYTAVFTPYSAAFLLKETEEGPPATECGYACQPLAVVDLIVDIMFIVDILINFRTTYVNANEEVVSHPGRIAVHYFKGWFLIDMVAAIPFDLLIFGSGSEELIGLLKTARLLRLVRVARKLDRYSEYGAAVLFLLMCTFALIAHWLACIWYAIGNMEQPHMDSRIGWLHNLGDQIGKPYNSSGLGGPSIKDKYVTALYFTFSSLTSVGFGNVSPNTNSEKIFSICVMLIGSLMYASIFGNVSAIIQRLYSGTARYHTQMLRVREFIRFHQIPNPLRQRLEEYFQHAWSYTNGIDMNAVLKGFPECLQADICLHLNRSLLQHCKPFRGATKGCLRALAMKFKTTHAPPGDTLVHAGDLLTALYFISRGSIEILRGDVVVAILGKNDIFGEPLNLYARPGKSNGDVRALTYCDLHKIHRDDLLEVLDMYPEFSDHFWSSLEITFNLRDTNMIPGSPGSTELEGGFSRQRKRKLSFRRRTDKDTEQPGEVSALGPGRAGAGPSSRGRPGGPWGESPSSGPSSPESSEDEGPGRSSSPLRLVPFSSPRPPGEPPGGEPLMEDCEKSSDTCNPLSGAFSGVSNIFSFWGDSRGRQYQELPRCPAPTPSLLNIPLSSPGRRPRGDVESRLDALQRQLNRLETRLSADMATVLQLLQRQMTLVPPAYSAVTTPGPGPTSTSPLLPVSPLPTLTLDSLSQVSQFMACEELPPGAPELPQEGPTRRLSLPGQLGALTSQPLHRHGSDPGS
row,Compound,"hERG current change (%, negative = inhibition) at 10uM"
1,COc1ccc(-c2csc3nc(C)nc(N4CCC(C)CC4)c23)cc1OC,8.52%
2,NC(=O)c1cc(NC(=O)c2ccc(NS(=O)(=O)c3cccs3)cc2)cc(C(N)=O)c1,6.58%
3,COc1ccc(C2Nc3ccccc3C(=O)N2NS(=O)(=O)c2ccccc2)cc1 (stereo not shown),11.5%
4,COc1cccc(N(C(=O)CCl)C(C(=O)NCCc2ccccc2)c2cccs2)c1 (stereo not shown),-18.3%
5,OC(COc1ccccc1CNCc1cccnc1)CN1CCc2ccccc2C1 (stereo not shown),-34.2%
6,CCn1c(=O)c(=O)n(CC)c2cc(S(=O)(=O)Nc3ccc(C)cc3)ccc21,7.02%
7,Cn1c(=O)c2c(ncn2Cc2cc(-c3ccccc3)no2)n(C)c1=O,-24.4%
8,COc1ccc(S(=O)(=O)N2CCCN(CC(=O)Nc3cc(NC(C)=O)ccc3OC)CC2)cc1,-32.7%
9,CCOc1ccc(N(C)S(=O)(=O)c2ccc(-c3ccc(=O)[nH]n3)s2)cc1,-15.6%
10,O=C1c2cccnc2Nc2ccccc2N1CCCF,2.89%
11,O=S(=O)(c1ccc(Br)s1)N1CCc2ccccc2C1,-8.14%
12,C#CCOc1ccc(/C=C2/C(=O)ON=C2C)cc1Cl,10.9%
13,CCOC(=O)N1CCN(C(=O)c2ccc3c(=O)n(CCC4=CCCCC4)c(=O)[nH]c3c2)CC1,-12.1%
14,CCCCCCCC(=O)N/N=C(/C)c1c(O)cc(C)oc1=O,-19%
15,CCOC(=O)N1CCN(C(=O)CSc2ccc(C(=O)OC)cc2[N+](=O)[O-])CC1,-10.1%
16,Cc1ccccc1NC1=C/C(=N\S(=O)(=O)c2cccs2)c2ccccc2C1=O,9.71%
17,COc1cc(C(C)=O)ccc1OCCN1CCC(Cc2ccccc2)CC1.O=C(O)C(=O)O,-91%
18,Cc1cc(C)nc(CCNC(=O)c2cc(COc3ccc(F)cc3Cl)on2)n1,-11.8%
19,COc1ccccc1C(=O)NN=C1CCN(Cc2ccccc2)CC1,-0.167%
20,Cc1cccc(C(=O)OCC(=O)NC(=O)c2ccccc2)c1O,32.1%
21,CCOC(=O)N1CCN(C/C(Cl)=C/c2ccccc2)CC1,-3.25%
22,O=C(CSc1n[nH]c(-c2cccs2)n1)NCc1cccs1,-8.77%

row,Compound,"hERG current change (%, negative = inhibition) at 10uM"
1,COC(=O)c1sc2nc(SCc3cccc(Cl)c3)n(N)c(=O)c2c1C,1.39%
2,Cc1ccc(N2CC(C(=O)NCc3ccccn3)CC2=O)cc1 (stereo not shown),5.36%
3,COC(=O)CC1=C(C(=O)OC)C(c2cccs2)C(C#N)=C(N)O1 (stereo not shown),1.57%
4,Cc1ccc(NC(=O)c2ccc(S(=O)(=O)N3CCC(C)CC3)cc2)nc1,-3.08%
5,CCSc1nnc(NC(=O)c2nc(S(=O)(=O)Cc3ccc(F)cc3)ncc2Cl)s1,1.9%
6,COc1ccc(/C=C/C(=O)NCCn2c(C)cc3ccccc32)cc1OC,-27.5%
7,Cc1ccc(NS(=O)(=O)Cc2ccccc2)cc1Cl,8.69%
8,COC(=O)C1=C(C)NC2=C(C(=O)CC(C)(C)C2)C1c1cccc(C)n1 (stereo not shown),8.61%
9,C=CCCC(=O)Nc1nc(C)c(-c2csc(Nc3ccccc3OC)n2)s1,3.6%
10,CCN1C(=O)[C@H]2[C@H]3[C@H](O)[C@H](O)C/C(=N\OC[C@@H](C)[C@H](OCc4ccccc4)C(C)C)[C@@H]3CC[C@H]2C1=O,3.99%
11,Cc1ccccc1CN(c1ccc(C(=O)NCCC2=CCCCC2)cc1)S(C)(=O)=O,-12%
12,COc1ccccc1/C=N/NC(=O)c1nnn(-c2nonc2N)c1CSC1=NCCS1,-3.01%
13,Cc1ccc(NC(=S)N(Cc2cccs2)Cc2cc3cc(C)cc(C)c3[nH]c2=O)cc1,7.79%
14,O=C(N/N=C/c1ccccc1F)c1cc2c(ccc3ccccc32)o1,-2.75%
15,CCO[C@@H]1OC(C(=O)NCc2nc3ccccc3[nH]2)=C[C@H](c2csc3ccccc23)[C@H]1CCCO,-34.1%
16,O=C1CC2(CCN(C(=O)c3c(F)cccc3Cl)CC2)Oc2ccccc21,-41.2%
17,Cc1nc2ccccn2c1C(=O)NNC(=S)Nc1ccccc1,10.7%
18,CCCCc1ccc(NC(=S)NCc2cccnc2)cc1,-14.8%
19,NC(=O)CC(NC(=O)Cc1cccc2ccccc12)c1ccc(NCCN2CCCC2)c([N+](=O)[O-])c1 (stereo not shown),-2.9%
20,CC(=O)NS(=O)(=O)c1ccc(NC(=O)CCC2CCCC2)cc1,-0.0873%
21,COc1ccc2[nH]c(C(=O)O)c(NS(=O)(=O)c3ccc(F)cc3)c2c1,13.2%
22,CCSC(=O)NC1CCCCC1,10.1%

row,Compound,"hERG current change (%, negative = inhibition) at 10uM"
1,O=C1/C(=C\c2ccncc2)CCc2ccccc21,-26.4%
2,CCOP(=O)(OCC)C(C#N)=C1SCN(c2ccc(Cl)cc2)CS1,12.6%
3,CCOC(=S)SCc1cn2ccccc2n1,5.57%
4,COc1cccc(C(=O)NC(=S)Nc2ccccc2N2CCCC2)c1,12.7%
5,CCOc1ccc(CNC(=O)CCCN2C(=O)C(c3ccccc3)Oc3cccnc32)cc1 (stereo not shown),15.7%
6,CN(Cc1ccc2c(c1)OCCO2)C(=O)CN1C(=O)NC2(CCCCC2)C1=O,9.15%
7,CCN1CCSc2ccc(C(=O)NCc3cc(Br)ccc3OC)cc21,-4.21%
8,CC(=O)Nc1ccc(/C=C(\C#N)C(=O)NC2CCCCC2C)cc1 (stereo not shown),-29.8%
9,O=C1CC(SC(=NCc2ccc3c(c2)OCO3)Nc2ccccc2)C(=O)N1c1ccccc1 (stereo not shown),14.6%
10,COc1ccccc1C(=O)COC(=O)Cn1c(C)csc1=O,-13%
11,O=C(NNC(=O)c1ccc(O)cc1O)c1ccc(Cl)cc1,-1.82%
12,CC1CCN(C(c2ccc(N(C)C)cc2)c2nnnn2C(C)(C)C)CC1 (stereo not shown),-7.17%
13,O=C(Cc1ccc(Cl)cc1)NCC(=O)N1CCN(c2ccccc2)CC1,-19.6%
14,CCN(CC)c1ccc(CNc2ccc(Br)cn2)cc1,13.1%
15,COc1ccc(CN(C(=O)c2nsc(Cl)c2Cl)C(C(=O)NC2CCCCC2)c2ccc(OC)cc2)cc1 (stereo not shown),-6.67%
16,CCCCCOc1ccc(C2C(C(=O)c3ccc(C)o3)=C(O)C(=O)N2c2cc(C)on2)cc1 (stereo not shown),15.9%
17,Cc1ccsc1C(=O)C1CCCN(CCO)C1 (stereo not shown),5.34%
18,O=C(Nc1ccc(N2CCN(C(=O)c3ccc(Cl)cc3)CC2)cc1)c1cccs1,-7.89%
19,c1ccc(CCC2CCCCN2Cc2nc(-c3ccc4c(c3)OCO4)no2)nc1 (stereo not shown),-55.7%
20,CC(C)Cn1c(N)c(C(=O)CSc2nncs2)c(=O)n(C)c1=O,-12.9%
21,CC(C)Nc1nc(Oc2ccc(Cl)cc2)cc(C(F)(F)F)n1,-8.31%
22,COc1cccc(CC(NC(C)=O)C(=O)NC2CCN(c3c(Cc4ccccc4)c(C)nc4ncnn34)CC2)c1 (stereo not shown),-0.458%

row,Compound,"hERG current change (%, negative = inhibition) at 10uM"
1,COc1ccc(C(C(=O)NC2CCCC2)N(CCO)C(=O)Cn2nnc(-c3ccc(C)o3)n2)cc1OC (stereo not shown),3.26%
2,O=C(Nc1ccc2c(c1)ncn2-c1ccccc1)c1ccco1,-4.23%
3,Cc1nn2c(-n3ccnc3)c3c(nc2c1-c1ccccc1)CCC3,-16%
4,COc1ccc(C2CC(c3ccc4ccccc4c3OC(C)=O)=NN2C(C)=O)cc1 (stereo not shown),10.2%
5,Cc1ccc(CNC(=O)CCCNS(=O)(=O)c2cccc3nonc23)cc1,-11.4%
6,COc1ccc(OCC(=O)Nc2ccc3c(c2)nc(CCN2CCOCC2)n3C)cc1,-41%
7,O=C(COc1ccccc1Cl)NCCCNC(=O)c1ccco1,2.17%
8,CC(=O)c1ccc(S(=O)(=O)NCCc2cn3ccc(C)cc3n2)cc1,-29.9%
9,Nc1nccc(-c2ccc(-n3cnc4ccccc43)cc2)n1,-25.3%
10,O=C(O)CCN1C(=O)c2ccncc2C1=O,-6.92%
11,COc1cc(NC(=O)c2ccccc2F)c(OC)cc1NC(=O)CN1CCOCC1.Cl,-13.1%
12,CCOc1ccc(C(C)=O)cc1Cn1nc(C(=O)O)c2ccccc2c1=O,-8.26%
13,Cc1ccccc1S(=O)(=O)c1cc(C#N)c(=O)[nH]c1N,19%
14,COc1ccc(-c2csc(NC(C)c3nc4cc(C(F)(F)F)ccc4n3CCOCCO)n2)cc1 (stereo not shown),-39.3%
15,CCCc1cc(C(=O)N2CCCC(C(=O)c3cc(C)c(OC)c(C)c3)C2)n(C)n1 (stereo not shown),-41.3%
16,S=C(NCC(c1ccco1)N1CCCC1)Nc1ccccc1 (stereo not shown),-28.9%
17,CC(OC(=O)CCC(=O)N1CCN(S(=O)(=O)c2ccc3ccccc3c2)CC1)C(=O)NC(N)=O (stereo not shown),-22.9%
18,CC(=O)c1cccc(NC(=S)NC(=O)c2ccc(C)cc2Cl)c1,9.94%
19,O=C(CCc1nc(-c2ccccc2)no1)NC1CCCCCC1,1.28%
